Results reported in the supplement of paper PMC3334620.
Over roughly 33,000 sequences, “E-score (-0.5 to 0.5)” has its median near -0.011; the highest 2% begin near 0.28. Some of the results follow.

biological target: T1, Gcr1 (UniProt P07261); test: PBM E-score (8-mer binding enrichment) (E-score (-0.5 to 0.5)); higher = stronger / more preferred TF binding; most listed sequences are background and not binding sites; settings: protein concentration: 100 nM; construct: GST-full length
T1 sequence: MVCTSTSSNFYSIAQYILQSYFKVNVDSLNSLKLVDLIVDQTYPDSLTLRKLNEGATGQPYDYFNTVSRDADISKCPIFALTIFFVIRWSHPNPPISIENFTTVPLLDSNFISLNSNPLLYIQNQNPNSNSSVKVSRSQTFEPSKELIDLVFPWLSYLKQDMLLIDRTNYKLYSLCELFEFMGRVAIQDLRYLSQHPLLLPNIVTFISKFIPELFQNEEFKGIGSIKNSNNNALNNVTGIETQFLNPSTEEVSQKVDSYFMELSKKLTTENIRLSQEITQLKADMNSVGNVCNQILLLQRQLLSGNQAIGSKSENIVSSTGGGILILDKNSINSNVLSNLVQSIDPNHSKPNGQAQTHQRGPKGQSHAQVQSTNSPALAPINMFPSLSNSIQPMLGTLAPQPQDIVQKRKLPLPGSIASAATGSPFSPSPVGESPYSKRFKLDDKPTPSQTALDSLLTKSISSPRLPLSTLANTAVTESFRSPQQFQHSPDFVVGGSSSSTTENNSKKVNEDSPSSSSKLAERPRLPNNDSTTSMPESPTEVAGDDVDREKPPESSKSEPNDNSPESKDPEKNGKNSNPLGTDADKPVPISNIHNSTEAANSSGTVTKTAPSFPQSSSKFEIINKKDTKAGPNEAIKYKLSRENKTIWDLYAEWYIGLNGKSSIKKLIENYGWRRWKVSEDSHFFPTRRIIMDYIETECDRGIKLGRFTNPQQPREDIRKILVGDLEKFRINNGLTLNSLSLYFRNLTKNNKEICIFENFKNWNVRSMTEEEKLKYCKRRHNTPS
Experimental: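 Universal 'all 10-mer' protein binding microarrays (Agilent AMADID 015681) probed with GST-tagged S. cerevisiae TFs (full-length or DBD) made by in vitro transcription/translation (PURExpress), about 100-200 nM. Bound TF was detected with fluorescent anti-GST. Each ungapped 8-mer (which stands for itself and its reverse complement) is scored by the PBM enrichment score (E-score), a modified Wilcoxon-Mann-Whitney statistic from -0.5 to +0.5, computed with the Universal PBM Analysis Suite. Scale: above 0.35 generally sequence-specific binding.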

| Sequence | PBM E-score |
| --- | --- |
| CTGGACAC | 0.172 |
| AACATTCT | 0.0927 |
| GTCCTGAA | 0.196 |
| AATCCAGA | 0.259 |
| ATGCGGCG | 0.105 |
| CACATGCA | -0.118 |
| AAGTGGAC | 0.15 |
| ATAGTGAG | -0.202 |
| AGCCTAAA | 0.0999 |
| ATCAGGTA | 0.0928 |
| CCCTGTCG | -0.151 |
| ATCTACAA | 0.0342 |
| CACCATGG | -0.087 |
| GTAATCTA | 0.0152 |
| ACGCGCTC | -0.00866 |
| AATAAATT | 0.0276 |
| TGCTATAA | -0.172 |
| AAGGGGAC | -0.0201 |
| ACATGCGC | -0.117 |
| TACCTGGA | -0.0183 |
| CGGCGACC | 0.207 |
| AGCTTCAC | 0.102 |
| CTTATTCC | -0.0914 |
| AGCGCCAC | 0.122 |

| Sequence | PBM E-score |
| --- | --- |
| ATCAGGAG | 0.0606 |
| GAGCTCCC | -0.0043 |
| ACTTAACC | -0.196 |
| TGAAGTAA | -0.137 |
| AAAAGATC | -0.0633 |
| CGAGTAGC | -0.018 |
| GTAAGTAA | -0.0882 |
| GTAGATCA | 0.0312 |
| GAGATAAC | 0.0116 |
| ATAGAGAC | -0.109 |
| ATACAGAC | 0.0369 |
| ATCGGCAG | -0.0842 |
| ACTCACTA | -0.0547 |
| ACAAACGG | -0.00297 |
| AGAGCTCC | -0.238 |
| GTAGGCTA | -0.259 |
| ATACAACA | -0.0317 |
| TAGGTCGA | -0.0729 |
| CCCTTATC | -0.123 |
| GAGATGCC | 0.158 |
| ATCAATAC | -0.217 |
| GACAACGA | -0.00038 |
| CGTTCGTC | -0.107 |
| CATCGTGA | 0.157 |

| Sequence | PBM E-score |
| --- | --- |
| ATAGTGGA | 0.376 |
| GGCCCCTA | 0.127 |
| CTTTAGCC | -0.0647 |
| CTGTGAAC | -0.0359 |
| CCGGACCC | 0.0907 |
| CAGTTAAG | 0.00707 |
| ACGGCTAC | -0.0425 |
| AGTTTCAG | -0.0643 |
| ACCGGTCT | -0.212 |
| ATGAAAAA | 0.191 |
| AAGGACGC | 0.256 |
| AAGTGGGT | 0.133 |
| TGAGGAAA | -0.0975 |
| CGTGAAGC | -0.0584 |
| ACCAACGT | 0.0312 |
| AAGAGTAG | 0.0308 |
| ACATTCGC | 0.0746 |
| AAGCGCGT | 0.0945 |
| ATGCTTGA | 0.162 |
| AAAGACCC | -0.0472 |
| ATCAGCAA | -0.194 |
| ACTGGAGA | -0.0302 |
| ATCACAAG | 0.077 |
| TCGATCCA | -0.19 |

| Sequence | PBM E-score |
| --- | --- |
| ATGCGCGA | -0.0291 |
| CTCCCGGA | -0.0233 |
| AAGATGCG | 0.198 |
| AACACGAA | 0.206 |
| GACGTGTA | -0.0343 |
| CTCTTTTC | -0.0202 |
| CTGAGAAA | -0.00378 |
| CTCCCCTC | -0.0497 |
| CACGACAA | -0.2 |
| AAGTACAA | -0.0355 |
| ATCCGATA | 0.2 |
| GGGTATCA | -0.125 |
| AGAGGACT | 0.042 |
| AGGTTTAC | -0.00155 |
| CGGATCCA | 0.235 |
| AGTAGTCA | -0.0714 |
| AACACCAC | 0.00522 |
| GCTGAAAA | 0.0407 |
| CTATGAAC | 0.0664 |
| GAAGGCTA | -0.239 |
| AACGAGGG | 0.0827 |
| CTTATCTC | 0.0249 |
